{"source": "PubChem BioAssay AID651820", "about": "(National Center for Advancing Translational Sciences (NCATS), 2012)", "note": "In all, about 340,000 compounds went through this assay and about 12,000 (3.5%) were called active. Inconclusive results, whose numbers are uncertain, are shown with a selection of clear calls. Calls follow the shape of the dose curve; as a rule, active = well fitted inhibition curve with a large enough effect; inconclusive = small, poorly fitted or top-dose-only effect, or another doubt; inactive = no such curve, though single readings can be large or run the other way. Potencies of inconclusive entries are left out as doubtful fits. % is scaled to controls: 0 for no effect and ±100 for the full control effect; potency is read from the fitted curve at half-maximal effect; tags tell the direction and shape of the fitted curve.", "data": [{"test": "qHTS Assay for Inhibitors of Hepatitis C Virus (HCV)", "settings": "Huh7.5.1 HCVcc-Cre (HCVcc is cell-culture hepatitis C virus) infection, luciferase reporter, 44 h; activity change, negative = inhibition: at 41.8 µM (top of the series) unless noted", "how_it_was_run": "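After 44 h co-culture of compound, cells and HCVcc-Cre (~0.5 moi), substrate is added for 15 min at room temperature and luciferase measured over 15 sec. Cells were seeded at 1,000/well and pre-cultured 4 h.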", "values": [{"compound": "COc1cccc(-c2cc(C(=O)NC3CCCC3)c3ccccc3n2)c1", "Potency": "inconclusive [inhibitor, single point]"}, {"compound": "O=C(/C=C/c1ccc(Cl)cc1)NC(=S)Nc1ccccc1C(=O)O", "activity change, negative = inhibition": "inactive: 0.315%"}, {"compound": "CCOC(=O)c1c(CSC(=N)N)n(-c2ccc(C)cc2)c2cc(Br)c(OC(C)=O)cc12", "Potency": "inconclusive [inhibitor, single point]"}, {"compound": "CN1CCc2nc(SCC(=O)Nc3ccc(OC(F)(F)F)cc3)c(C#N)c(-c3cccs3)c2C1", "Potency": "active: 12.6 µM"}, {"compound": "Cc1c(NC(=O)c2cc3nc(-c4ccc(Br)cc4)cc(C(F)(F)F)n3n2)c(=O)n(-c2ccccc2)n1C", "Potency": "inconclusive [inhibitor, single point]"}, {"compound": "CCc1sc(C(=O)N2CCN(C(=O)c3ccccc3)CC2)cc1C", "activity change, negative = inhibition": "inactive: -16.2%"}, {"compound": "Cc1cccn2c(=O)c(/C=C3\\SC(=S)NC3=O)c(NCCCN3CCOCC3)nc12", "activity change, negative = inhibition": "inactive: 1.69%"}, {"compound": "CC(=O)NCCc1ccc(S(=O)(=O)Nc2ccc3c(c2)OCCO3)cc1", "activity change, negative = inhibition": "inactive: -4.17%"}, {"compound": "CCOC(=O)c1c(/N=C/c2ccc(OC)cc2O)sc2c1CCN(C)C2", "activity change, negative = inhibition": "inactive: -13.8%"}, {"compound": "Cc1oc(-c2ccc(Cl)cc2)nc1CN1CCCC(C(=O)NCCCN2CCCC2=O)C1", "note": "(centres undefined)", "Potency": "inconclusive [inhibitor, partial curve]"}, {"compound": "CCCCS(=O)(=O)C(=C1Nc2ccccc2N1)S(=O)(=O)CCCC", "activity change, negative = inhibition": "inactive: -11.3%"}, {"compound": "NC(=O)NC(=O)COC(=O)CCSc1ccccc1", "activity change, negative = inhibition": "inactive: -0.422%"}, {"compound": "Cc1cc(C)nc(SCc2nc(N)nc(-c3ccccc3O)n2)n1", "Potency": "inconclusive [inhibitor, single point]"}, {"compound": "CCS(=O)(=O)c1ccc(-c2csc(-c3ccccc3)n2)c(Cl)c1Cl", "Potency": "inconclusive [inhibitor, partial curve]"}, {"compound": "CC(=O)N1CCN(c2ccc(NCc3cccc4ccccc34)cc2)CC1", "Potency": "inconclusive [inhibitor, single point]"}, {"compound": "CN(Cc1ccccc1)S(=O)(=O)c1ccc(N2CCOCC2)nc1", "activity change, negative = inhibition": "inactive: -16%"}, {"compound": "C/C(=N\\NC(=O)c1ccc(N/N=C(\\C)c2ccncc2)cc1)c1ccncc1", "Potency": "inconclusive [inhibitor, single point]"}, {"compound": "Cc1cc(-c2nn(-c3ccccc3F)cc2CN2CCN(c3ccccn3)CC2)c(C)s1", "Potency": "inconclusive [inhibitor, single point]"}, {"compound": "CCCCCOC(=O)CC(C(=O)OCCCCC)N1CCCCC1", "note": "(centres undefined)", "Potency": "inconclusive [inhibitor, single point]"}, {"compound": "CCN(CC)CCn1c2ccccc2c2nc3ccccc3nc21", "Potency": "inconclusive [inhibitor, single point]"}, {"compound": "CC(=O)Nc1ccc(S(=O)(=O)N2CCN(Cc3cccs3)CC2)cc1", "Potency": "inconclusive [inhibitor, single point]"}, {"compound": "CN(CC(=O)Nc1cccc(F)c1)CC(=O)Nc1cccc(S(=O)(=O)N(C)c2ccccc2)c1", "Potency": "inconclusive [inhibitor, partial curve]"}, {"compound": "O=C(c1cn(CC2CCCCC2)nn1)N1CCN(c2ccc(F)cc2)CC1", "Potency": "inconclusive [inhibitor, single point]"}, {"compound": "COc1ccc(C)cc1NCc1cc(=O)oc2cc(-c3ccccc3)c(O)cc12", "Potency": "inconclusive [inhibitor, single point]"}, {"compound": "NC(=O)Nc1ccc(Nc2ccccc2)cc1", "Potency": "inconclusive [inhibitor, single point]"}, {"compound": "CCOc1ccc(Br)cc1S(=O)(=O)N1CCCN(C)CC1", "Potency": "inconclusive [inhibitor, partial curve]"}, {"compound": "CN1CCN(c2ccc(S(=O)(=O)N3CCCCC3)cc2NC(=O)CCc2ccccc2)CC1", "activity change, negative = inhibition": "inactive: -20.6%"}, {"compound": "Cc1ccc(/C=N/NC(=O)C2(C)CC2(Br)Br)cc1", "note": "(centres undefined)", "Potency": "inconclusive [inhibitor, full curve]"}, {"compound": "Cc1cccc(-n2c(O)c(C=Nc3cccc(O)c3)c3ccccc3c2=O)n1", "Potency": "inconclusive [inhibitor, single point]"}, {"compound": "CCCCn1nnnc1NCc1cccnc1", "Potency": "inconclusive [inhibitor, single point]"}, {"compound": "O=C(CN1CCCC1)Nc1ccc(NC(=O)Nc2ccccc2)cc1", "activity change, negative = inhibition": "inactive: 1.08%"}, {"compound": "Cc1cc(C)nc(SCC(=O)Nc2ccc(N3CCOCC3)c(Cl)c2)n1", "Potency": "active: 7.94 µM"}, {"compound": "CCCc1[nH]nc2c1C(c1cc(OC)cc(OC)c1)C(C#N)=C(N)O2", "note": "(centres undefined)", "activity change, negative = inhibition": "inactive: -21.9%"}, {"compound": "O=[N+]([O-])c1ccc(O)c2ncccc12", "Potency": "inconclusive [inhibitor, single point]"}, {"compound": "CC(C)(C)c1ccc(-c2noc(CCC(=O)NCc3ccco3)n2)cc1", "Potency": "inconclusive [inhibitor, single point]"}, {"compound": "Cc1ccc(NC(=S)N(CCCN2CCCC2)Cc2cccn2Cc2ccc(Cl)cc2)cc1", "Potency": "inconclusive [inhibitor, single point]"}, {"compound": "COc1ccc(-c2csc(NC(=O)COC(=O)Cc3ccc(Cl)cc3Cl)n2)cc1", "Potency": "inconclusive [inhibitor, full curve, poor fit]"}, {"compound": "CCCNC(=O)c1ccc(SCC(=O)N(CC)CC)c([N+](=O)[O-])c1", "Potency": "inconclusive [inhibitor, single point]"}, {"compound": "O=C(CN1C2=NCCN2c2ccccc21)c1ccc(Br)s1", "Potency": "inconclusive [inhibitor, partial curve]"}, {"compound": "CN1CCN(c2ccc3c(c2)C2CC3CCN2C(=O)OCc2ccccc2)CC1", "note": "(centres undefined)", "Potency": "inconclusive [inhibitor, partial curve, poor fit]"}, {"compound": "COc1cc(NC(=O)CCNS(=O)(=O)c2ccc3c(c2)CCC(=O)N3)cc(OC)c1", "activity change, negative = inhibition": "inactive: 42.9%"}, {"compound": "Cc1cccc(NC(=O)C(c2cccc([N+](=O)[O-])c2)N2CCCCC2)c1", "note": "(centres undefined)", "Potency": "inconclusive [inhibitor, single point]"}, {"compound": "COc1cc(-c2noc(C)c2C#CC2(N)CCCCC2)cc(OC)c1OC", "Potency": "inconclusive [inhibitor, single point]"}, {"compound": "CN(c1ccccc1)S(=O)(=O)c1cccc(C(=O)N2CCCCCC2)c1", "activity change, negative = inhibition": "inconclusive: -43.5% [inhibitor]"}, {"compound": "C=CCNC(=O)/C(C#N)=C/c1ccccc1OCc1ccc(C(=O)OC)cc1", "activity change, negative = inhibition": "inactive: -0.763%"}, {"compound": "Cc1ccc(C(=O)N/C(=C\\c2ccc(-c3cccc([N+](=O)[O-])c3)o2)C(=O)NC(C)(C)C)cc1", "Potency": "inconclusive [inhibitor, single point]"}, {"compound": "Cc1ccc([N+](=O)[O-])cc1NC(=O)c1ccc(-c2ccccc2)cc1", "Potency": "inconclusive [inhibitor, single point]"}, {"compound": "CCCc1ccc2oc(C(=O)NCCN3CCCC(C(N)=O)C3)c(C)c2c1", "note": "(centres undefined)", "Potency": "inconclusive [inhibitor, partial curve]"}, {"compound": "COc1ccc(CNC(=O)[C@H](Cc2ccccc2)NC(=O)C2CCNCC2)cc1", "activity change, negative = inhibition": "inactive: -1.85%"}, {"compound": "CCOC(=O)C1(CC2CC2)CCN(Cc2cn[nH]c2-c2cccc(F)c2)CC1", "Potency": "inconclusive [inhibitor, single point]"}, {"compound": "O=c1oc(C2(O)CCCCC2)cc2ccc(-c3ccc4[nH]ccc4c3)cc12", "Potency": "active: 1.12 µM"}, {"compound": "COc1ccc(Br)cc1CN(C)C(=O)Cc1ccc(S(=O)(=O)N2CCOCC2)s1", "Potency": "inconclusive [inhibitor, single point]"}, {"compound": "CCCCc1cc(=O)oc2cc(C)cc(OCC(=O)NCc3ccccn3)c12", "Potency": "inconclusive [inhibitor, full curve]"}, {"compound": "CC(C)CCn1c(=O)c2sccc2n2c(CCCC(=O)N3CCC(N4CCCCC4)CC3)nnc12", "Potency": "active: 12.6 µM"}, {"compound": "Cc1cc(C(=O)OC(C)C(=O)NC2CCCCC2)c(C)o1", "note": "(centres undefined)", "Potency": "inconclusive [inhibitor, single point]"}, {"compound": "O=C(NNc1nc(-c2ccccc2)cs1)c1cccs1", "Potency": "inconclusive [inhibitor, single point]"}, {"compound": "O=C1N(Cc2cccnc2)C[C@@H]2C[C@@H](c3ccc(-c4ccccc4)cc3)N3CCC[C@@]123", "Potency": "inconclusive [inhibitor, single point]"}, {"compound": "CCOc1ccc2ccccc2c1/C=N/NC(=O)CNC(=O)c1ccccc1F", "Potency": "inconclusive [inhibitor, single point]"}, {"compound": "C=CCn1c2c(c(=O)[nH]c1=S)CN(C(C)c1ccccc1)CN2", "note": "(centres undefined)", "activity change, negative = inhibition": "inactive: 15.6%"}, {"compound": "COc1ccc(OC)c(CCNC(=O)CS(=O)(=O)Cc2nc(-c3ccccc3Cl)oc2C)c1", "Potency": "inconclusive [inhibitor, partial curve]"}, {"compound": "Nc1nc2n(n1)C(c1c(F)cccc1Cl)CC(c1ccc(F)cc1)N2", "note": "(centres undefined)", "Potency": "inconclusive [inhibitor, partial curve]"}, {"compound": "CC1CCCN(c2sc(S(C)(=O)=O)nc2S(=O)(=O)c2ccc(Cl)cc2)C1", "note": "(centres undefined)", "activity change, negative = inhibition": "inactive: -23.1%"}, {"compound": "COC(=O)c1c(NC(=O)C2=COCCO2)sc(C)c1C", "Potency": "inconclusive [inhibitor, full curve]"}, {"compound": "COc1ccc(CNC(=O)C2CCNCC2)cc1", "activity change, negative = inhibition": "inactive: 8.63%"}, {"compound": "COc1ccc(/C=C2\\N=C(SC)N(C)C2=O)cc1", "activity change, negative = inhibition": "inactive: 10.4%"}, {"compound": "COc1cc(C(=O)OCC(=O)NCc2ccccc2)cc(NC(=O)c2ccco2)c1OC", "Potency": "inconclusive [inhibitor, partial curve]"}, {"compound": "N#Cc1ccccc1Cn1c(=O)oc2ccccc21", "activity change, negative = inhibition": "inactive: 2.27%"}, {"compound": "Cc1ccc(N(Cc2ccco2)C(=O)c2ccc(N3CCCCC3)c([N+](=O)[O-])c2)cc1", "Potency": "inconclusive [inhibitor, partial curve]"}, {"compound": "CC(=O)c1cccc(S(=O)(=O)N2CCN(CCOc3ccccc3)CC2)c1", "Potency": "inconclusive [inhibitor, single point]"}]}]}
